These are yes or no findings as the source states them, for the method shown. For part of these data: Binding seen in cells or lysates may run through a third protein. Some entries that bind do so weakly or less than the wild type. For part of these data: Where a sequence is shown, tags or fusion partners need not be part of it.

Amino acid sequences for entries named in this document (tags omitted).
UniProt P41161: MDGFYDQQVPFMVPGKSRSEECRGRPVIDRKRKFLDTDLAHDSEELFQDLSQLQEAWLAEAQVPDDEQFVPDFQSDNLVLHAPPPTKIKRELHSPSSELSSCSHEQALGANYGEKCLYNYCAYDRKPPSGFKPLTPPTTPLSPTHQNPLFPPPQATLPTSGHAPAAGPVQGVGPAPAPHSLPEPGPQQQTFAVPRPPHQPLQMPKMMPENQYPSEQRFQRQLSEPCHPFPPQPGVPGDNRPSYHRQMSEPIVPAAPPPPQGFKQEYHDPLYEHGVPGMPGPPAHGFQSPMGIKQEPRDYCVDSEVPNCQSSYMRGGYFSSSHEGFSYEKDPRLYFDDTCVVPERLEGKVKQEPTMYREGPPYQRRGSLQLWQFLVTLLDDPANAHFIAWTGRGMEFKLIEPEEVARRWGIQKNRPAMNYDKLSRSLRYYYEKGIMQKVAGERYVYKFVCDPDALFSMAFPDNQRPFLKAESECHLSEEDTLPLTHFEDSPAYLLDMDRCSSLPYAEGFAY
UniProt P43268: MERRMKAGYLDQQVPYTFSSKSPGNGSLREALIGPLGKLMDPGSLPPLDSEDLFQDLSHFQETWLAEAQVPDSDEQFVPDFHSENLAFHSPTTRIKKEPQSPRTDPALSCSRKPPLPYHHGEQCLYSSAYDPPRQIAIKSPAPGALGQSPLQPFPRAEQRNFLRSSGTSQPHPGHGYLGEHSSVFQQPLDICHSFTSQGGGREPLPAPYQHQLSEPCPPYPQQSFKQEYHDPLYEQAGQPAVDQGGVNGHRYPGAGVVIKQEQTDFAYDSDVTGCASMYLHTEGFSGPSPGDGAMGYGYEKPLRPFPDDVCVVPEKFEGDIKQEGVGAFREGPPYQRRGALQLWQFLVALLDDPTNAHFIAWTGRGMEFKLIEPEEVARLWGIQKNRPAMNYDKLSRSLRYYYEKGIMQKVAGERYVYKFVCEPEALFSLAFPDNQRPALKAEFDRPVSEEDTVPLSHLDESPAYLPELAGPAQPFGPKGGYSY
UniProt P50549: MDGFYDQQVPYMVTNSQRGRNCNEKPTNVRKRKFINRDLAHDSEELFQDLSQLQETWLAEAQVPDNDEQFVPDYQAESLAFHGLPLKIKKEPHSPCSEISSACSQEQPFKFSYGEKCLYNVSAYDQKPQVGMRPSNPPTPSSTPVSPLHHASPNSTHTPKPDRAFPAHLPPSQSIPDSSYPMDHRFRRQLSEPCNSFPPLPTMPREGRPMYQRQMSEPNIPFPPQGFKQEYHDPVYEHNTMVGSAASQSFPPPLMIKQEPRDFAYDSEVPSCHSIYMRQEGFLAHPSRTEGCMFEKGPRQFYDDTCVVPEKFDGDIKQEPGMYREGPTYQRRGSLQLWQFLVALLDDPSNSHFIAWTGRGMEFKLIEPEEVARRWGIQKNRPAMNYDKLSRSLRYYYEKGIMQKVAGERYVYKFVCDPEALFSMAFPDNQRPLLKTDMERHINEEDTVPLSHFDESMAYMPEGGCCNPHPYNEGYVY
UniProt P11940: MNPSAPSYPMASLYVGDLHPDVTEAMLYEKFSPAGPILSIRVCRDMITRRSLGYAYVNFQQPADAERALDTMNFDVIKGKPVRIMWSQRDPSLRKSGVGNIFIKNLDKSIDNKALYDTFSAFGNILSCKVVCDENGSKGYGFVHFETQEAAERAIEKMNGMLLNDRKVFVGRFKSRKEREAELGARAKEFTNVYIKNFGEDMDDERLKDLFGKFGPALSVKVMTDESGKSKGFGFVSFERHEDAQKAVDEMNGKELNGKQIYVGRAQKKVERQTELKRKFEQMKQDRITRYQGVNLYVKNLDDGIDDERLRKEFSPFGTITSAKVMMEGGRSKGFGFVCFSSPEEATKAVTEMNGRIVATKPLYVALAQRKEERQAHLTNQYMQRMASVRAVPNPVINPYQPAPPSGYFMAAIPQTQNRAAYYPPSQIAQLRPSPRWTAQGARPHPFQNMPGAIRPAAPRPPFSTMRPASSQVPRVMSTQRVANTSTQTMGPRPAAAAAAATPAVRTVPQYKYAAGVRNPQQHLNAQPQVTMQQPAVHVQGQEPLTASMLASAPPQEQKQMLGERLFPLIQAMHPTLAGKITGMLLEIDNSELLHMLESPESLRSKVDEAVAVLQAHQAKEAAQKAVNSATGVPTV

One experiment addresses T1, purified FLI1 (UniProt Q01543).
T1 sequence: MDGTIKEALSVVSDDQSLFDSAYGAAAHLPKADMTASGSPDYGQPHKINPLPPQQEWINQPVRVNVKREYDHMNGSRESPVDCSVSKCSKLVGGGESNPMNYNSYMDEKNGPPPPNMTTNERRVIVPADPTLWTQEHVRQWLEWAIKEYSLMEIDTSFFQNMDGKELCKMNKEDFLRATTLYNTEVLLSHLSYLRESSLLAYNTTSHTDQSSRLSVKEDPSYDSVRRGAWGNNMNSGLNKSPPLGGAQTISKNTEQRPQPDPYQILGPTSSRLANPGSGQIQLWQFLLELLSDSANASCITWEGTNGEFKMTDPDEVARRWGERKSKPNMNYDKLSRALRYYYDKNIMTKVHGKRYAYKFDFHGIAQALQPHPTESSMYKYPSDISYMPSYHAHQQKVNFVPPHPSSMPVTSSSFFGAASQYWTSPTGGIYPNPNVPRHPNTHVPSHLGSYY
The experiment in a line: pull-down; purified His-tagged protein (ERG, other ETS factors or PABPC1) on nickel / His isolation magnetic beads; purified GST-tagged protein added; NP-40 lysis buffer (50 mM Tris-HCl pH 7.4, 250 mM NaCl, 5 mM EDTA, 50 mM NaF, 1% NP-40) with BSA, 4 °C, 2 h; immunoblot; both purified. For orientation: Immunoblotting shows a protein as a band on a membrane.

In the next experiment the target is purified ETV5 (UniProt P41161). The experiment is described as above.
The next experiment addresses purified ETV4 (UniProt P43268). Described as above.
Another experiment addresses purified ETV1 (UniProt P50549). The experiment is described as above.
Another experiment concerns the target T2, GST-EWS 1 to 355 (ntEWS) (UniProt Q01844).
T2 sequence: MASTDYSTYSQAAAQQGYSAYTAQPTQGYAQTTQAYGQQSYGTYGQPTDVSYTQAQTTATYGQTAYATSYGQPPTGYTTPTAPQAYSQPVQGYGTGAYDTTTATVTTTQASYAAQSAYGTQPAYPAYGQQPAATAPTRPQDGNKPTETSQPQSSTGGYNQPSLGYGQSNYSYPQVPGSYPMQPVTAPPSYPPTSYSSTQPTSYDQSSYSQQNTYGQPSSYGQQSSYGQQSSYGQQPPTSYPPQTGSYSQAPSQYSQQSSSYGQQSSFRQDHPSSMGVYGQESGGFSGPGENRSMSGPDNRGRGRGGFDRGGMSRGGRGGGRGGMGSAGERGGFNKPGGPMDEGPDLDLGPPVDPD
The experiment in a line: pull-down; purified GST-tagged EWS fragment on glutathione magnetic beads; purified His-tagged protein (PABPC1 or ERG) added, no third protein; immunoblot; both purified.

Experiment [1] deals with FLAG-tagged ETV4 expressed in RWPE cells (UniProt P43268). Nature of the experiment: co-IP; whole-cell extracts in NP-40 lysis buffer (250 mM NaCl, 1% NP-40), antibody on magnetic Dynabeads, 4 °C, 4 h; immunoblot.
The target of experiment [2] is endogenous full-length EWS of VCaP cells (human (endogenous in VCaP)) (UniProt Q01844). Described as above.
In experiment [3] the target is T3, endogenous ERG of TMPRSS2/ERG-positive VCaP cells (human (endogenous in VCaP)) (UniProt P11308).
T3 sequence: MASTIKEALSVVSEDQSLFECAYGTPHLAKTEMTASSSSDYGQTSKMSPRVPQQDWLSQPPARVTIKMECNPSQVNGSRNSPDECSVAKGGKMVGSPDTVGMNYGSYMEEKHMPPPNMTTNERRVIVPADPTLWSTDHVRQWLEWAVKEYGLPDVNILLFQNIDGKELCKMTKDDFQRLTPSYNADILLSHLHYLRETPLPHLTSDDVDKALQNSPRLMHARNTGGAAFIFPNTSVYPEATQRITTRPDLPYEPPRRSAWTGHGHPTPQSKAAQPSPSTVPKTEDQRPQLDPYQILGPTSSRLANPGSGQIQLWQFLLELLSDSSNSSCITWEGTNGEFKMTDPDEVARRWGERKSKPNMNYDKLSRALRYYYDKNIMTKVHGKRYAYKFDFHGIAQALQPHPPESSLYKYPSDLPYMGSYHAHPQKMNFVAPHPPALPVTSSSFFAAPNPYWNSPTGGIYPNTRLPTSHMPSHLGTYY
Described as above.

Experiment [4] addresses hemagglutinin-tagged ctEWS expressed in PC3 cells (UniProt Q01844). The experiment in a line: co-IP; nuclear fraction of cells (modified RIPA buffer, 100 mM NaCl, 0.5% NP-40); immunoblot.

As for GST-PABPC1 (from UniProt P11940 1-636), the binding result with purified FLI1 is “no binding”; with purified ETV5, “binds”; in the experiment with purified ETV4, “binds”; in the experiment with purified ETV1, “no binding”.
On to His-PABPC1 (from UniProt P11940 1-636), for which the binding result with GST-EWS 1 to 355 (ntEWS) is reported as “no binding”.
With “PABPC1, endogenous in RWPE cells (from UniProt P11940 1-636)”, in experiment [1], the binding entry is given as “binds”.
As to “PABPC1, endogenous in VCaP cells (from UniProt P11940 1-636)”, the binding result in [2] and in [3] was “binds” throughout.
Turning to “cytoplasmic poly-adenylate-binding protein 1 (PABPC1), endogenous in PC3 cells (from UniProt P11940 1-636)”, the binding entry in experiment [4] is “binds”.
